From PubChem BioAssay (NCI)
“And” between values parts separate entries of the source, which are not always exact repeats. Identical values can stand only once.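 Briefly, cells in 96-well plates were exposed to five compound concentrations for 48 h, and endpoints were estimated by linear interpolation. GI50 = concentration required for 50% inhibition of growth. TGI marks complete inhibition of growth.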

What follows are compounds tested on NCI-H322M lung (assay: NCI-60 cell line screen, 48 h).

| SMILES | GI50 [µM] | TGI |
| --- | --- | --- |
| C/C(=C(/c1ccccc1)c1ccc(OCC(O)CNCCN2CCOCC2)cc1)c1ccccc1 (stereo not drawn) | 2.81 | 10.4 µM |
| Cc1cc(N/N=C/c2nc(-c3ccc(Cl)cc3)oc2C)c2cc(Br)ccc2n1 | 2.59 | 9.14 µM |
| CC1(C)OC(=S)N(c2ccccc2)C12C=Cc1cc3ccccc3nc1S2 (stereo not drawn) |  | > 100 µM |
| Nc1c(C(=O)c2cccc(C#CCN3CCCCC3)c2)cnn1-c1ccc(F)cc1 | > 25 | > 25 µM |
| Cn1c(=Nc2ccc(Cl)cc2)sc2ccccc21 |  | > 100 µM |
| COc1cc(C(=O)Oc2c(C(C)=O)sc3c2c(=O)n(-c2ccccc2)c(=S)n3-c2ccccc2)cc(OC)c1OC |  | 53 µM |
| CC(=O)c1ccc(NC(=O)C(=O)C(C(=O)/C=C/c2ccccc2)C2OC(=O)c3ccccc32)cc1 (stereo not drawn) |  | > 100 µM |
| O=c1[nH]ncc2[nH]c3c4ccccc4ccc3c12 |  | > 100 µM |
| O=C(/C=C1\Sc2ccccc2N=C1CC(=O)c1ccccc1)c1ccccc1 |  | 94.7 µM |
| CCc1ccc2[nH]c(O)c(C3=Nc4ccccc4C3=O)c2c1 |  | 33.7 µM |
| O=C1CCC[C@H]2O[C@@H](COC(=O)c3ccccc3)C[C@H]2O1 |  | > 100 µM |
| Nc1nccc(NCC2(CO)CC(OCc3ccccc3)C2)n1 (stereo not drawn) |  | > 100 µM |
| Oc1ccc(/C=C/c2cccc(/C=C/c3ccc(O)c(O)c3)n2)cc1O |  | 29.6 µM |
| O=[N+]([O-])c1cc([As](Br)c2ccc(O)c([N+](=O)[O-])c2)ccc1O |  | 3.36 µM |
| CCCCCCNCCCNc1c2cc(OC)ccc2nc2cccc([N+](=O)[O-])c12 | 0.224 | 0.232 µM and 1.16 µM |
| COc1ccc(/C=C2\C[C@H]3[C@@H]4CCC5=C/C(=N/O)CC[C@]5(C)[C@H]4CC[C@]3(C)\C2=N\O)cc1 |  | 81.4 µM |
| O=C(CC1(O)C(=O)Nc2ccc(F)cc21)c1ccc(C(=O)NCC2CCC3(CC2)OOC2(CCCCC2)OO3)cc1 (stereo not drawn) | 14.6 | 40.2 µM |
| Cn1cc(-c2cc(-c3cn(C)c4ccc(Cl)cc34)[nH]n2)c2cc(Cl)ccc21 | 5.73 | > 100 µM |
| CC12CC(=O)Nc3ccccc3N1C(c1ccccc1)=NO2 (stereo not drawn) |  | > 100 µM |
| c1ccc2c(c1)c1ccccc1n2Cn1c2ccccc2c2ccccc21 |  | > 100 µM |
| CN(C)CCCOc1cccc(NC2=C(Cl)C(=O)C(Nc3cccc(OCCCN(C)C)c3)=C(Cl)C2=O)c1 | 2.78 | 9.48 µM |
| CC(=O)NC1(NC(C)=O)C2CC(C1Cc1ccccc1)C(C)(C)C2C (stereo not drawn) |  | > 100 µM |
| OC1=CN=COc2ccccc21 |  | > 100 µM |

| SMILES | GI50 [µM] | TGI |
| --- | --- | --- |
| CCN1[C@@H](C(=O)NC23CCC(C(=O)O)(CC2)CC3)[C@H](c2cccc(Cl)c2F)[C@]2(C(=O)Nc3cc(Cl)ccc32)C12CCCCC2 | 2.65 | 15.9 µM |
| COc1ccc(/C=C2\CCC(CCN(C)C)(C3=CCCC3)C2=O)cc1 (stereo not drawn) |  | 35.5 µM |
| CO[C@H]1/C=C/O[C@@]2(C)Oc3c(C)c(O)c4c(O)c(c(/C=N/N5CCN(C)CC5)c(O)c4c3C2=O)NC(=O)/C(C)=C\C=C\[C@H](C)[C@H](O)[C@@H](C)[C@@H](O)[C@@H](C)[C@H](OC(C)=O)[C@@H]1C |  | > 100 µM |
| Cc1cc(NCc2cc(Nc3ccnc4cc(Cl)ccc34)ccc2F)nc(N2CCOCC2)n1 | 1.85 | 5.63 µM |
| CC(C)(C)NCC(O)COc1c(Br)c(Br)c(Br)c2c1OC(C)(C)C2 (stereo not drawn) | 1.79 | 3.19 µM |
| O=C1c2ccccc2C(=O)C12CCc1ccccc12 |  | > 100 µM |
| COc1ccc2oc(S(=O)(=O)N3CC(CCl)c4ccc(N)cc43)cc2c1 (stereo not drawn) |  | > 100 µM |
| Cn1c(=O)n(C)c2cc(CNCCNc3ccnc4cc(Cl)ccc34)ccc21 | 24.4 | > 100 µM |
| CCOC(=O)c1cn2c(n1)sc1cc(OC)ccc12 |  | > 100 µM |
| CC1CN=C(Nc2cccc(F)c2)S1 (stereo not drawn) |  | > 100 µM |
| Cc1ccc(S(=O)(=O)c2nc(-c3ccccc3)oc2S(C)(=O)=O)cc1 | 16.9 | 30.5 µM |
| CC(/C=C/C(O)=C1/C(=O)CNC1=O)=C\[C@@H](C)[C@H]1O[C@@]2(C)O[C@H](C(=O)[C@@H]3O[C@@]32C)[C@@H]1C |  | 33.6 µM |
| FC(F)(F)c1ccc(-c2nn3ncccc3c2-c2ccnc(Nc3ccc4c(c3)OCCO4)n2)cc1 | > 25 | > 25 µM |
| COc1cc([C@@H]2c3cc4c(cc3[C@H](OC(C)=O)[C@H]3COC(=O)[C@@H]23)OCO4)cc(OC)c1OC | 3.14 | > 100 µM |
| O=Cc1ccc(OC[C@H]2COC(=O)N2)cc1 |  | > 100 µM |
| CC1CC2(S(=O)(=O)c3ccccc3)ON1CC2S(=O)(=O)c1ccccc1 (stereo not drawn) |  | > 100 µM |
| O=c1[nH]c(SCc2cccc([N+](=O)[O-])c2)nc2nc[nH]c12 |  | > 100 µM |
| COc1ccc(-c2c(-c3ccc(OC)cc3)n3c(=O)n(C)c(=O)n23)cc1 |  | > 100 µM |
| CCOC(=O)c1sc2c(c1OC(=O)c1cc(OC)c(OC)c(OC)c1)c(=O)n(-c1ccccc1)c(=S)n2-c1ccccc1 |  | > 100 µM |
| C=C1C(=O)OC2C1CCC(C)C1(O)C=CC(=O)C21C (stereo not drawn) |  | > 10 µM |
| Clc1ccc2c(NCCCCN3OC3c3ccccc3)ccnc2c1 (stereo not drawn) |  | 22.1 µM |
| CCCC1(CN2c3ccccc3Sc3ccc(Cl)cc32)CCN(CC)C1 (stereo not drawn) | 1.88 | 3.48 µM |
| C=C1C(=O)O[C@H]2[C@H]1CC/C(COC(=O)N[C@H]1C[C@H](O[C@H]3C[C@](O)(C(=O)CO)Cc4c(O)c5c(c(O)c43)C(=O)c3c(OC)cccc3C5=O)O[C@@H](C)[C@H]1O)=C\CC[C@@]1(C)O[C@@H]21 | > 50 | > 50 µM |

| SMILES | GI50 [µM] | TGI |
| --- | --- | --- |
| CC1(C)OCC(C2OC3OC(C)(C)OC3C2c2ccccc2)O1 (stereo not drawn) |  | > 100 µM |
| C[N+](C)(C)CC1CCCCC1=O (stereo not drawn) |  | > 100 µM |
| Cc1ccc(S(=O)C[C@](NC(=O)OCc2ccccc2)(Sc2ccccc2)C(F)F)cc1 (stereo partly drawn) |  | 33 µM |
| C[C@H]1C2Cc3cc(O)ccc3[C@@]1(C)CCN2CCc1ccc(N)cc1 |  | > 100 µM |
| CC(=O)c1ccc2c(c1)N(CCCN1CCN(CCO)CC1)c1ccccc1S2 | 2.77 | 7.99 µM |
| O=c1oc(-c2ccc(O)cc2)cc2cc(O)ccc12 |  | 97.7 µM |
| COC(=O)C1Cc2c(OC)ccc(OC)c2C(O)C1C(=O)OC (stereo not drawn) |  | > 100 µM |
| O=C(c1ccccc1)N1C(=O)N(c2ccccc2)C(=Nc2ccccc2)C1=Nc1ccccc1 |  | > 100 µM |
| O=c1[nH]nc(Cc2ccccc2)n1/N=C/c1ccco1 |  | > 100 µM |
| COc1ccc2c(O)c(S(=O)(=O)c3ccc(C)cc3)c(=O)oc2c1OC |  | > 100 µM |
| O=[N+]([O-])c1ccc(C2ON=C(c3ccccc3)N2C23CC4CC(CC(C4)C2)C3)cc1 (stereo not drawn) |  | > 10 µM |
| CC(=O)c1cccc(NC(=O)C(=O)c2c(O)c3ccccc3oc2=O)c1 |  | > 100 µM |
| C=C1C[C@@H](O)[C@@H](Br)C(C)(C)[C@@]12C=CC(=O)CC2 |  | > 100 µM |
| Oc1[nH]c2ccccc2c1C1=Nc2ccccc2/C1=N\OCCOC1OCC(O)C(O)C1O (stereo not drawn) |  | > 100 µM |
| CCOC(=O)/C=C/c1c(C)[nH]c(=O)[nH]c1=O |  | > 250 µM |
| CCCN(CCC)c1ccc(C=O)c(Cl)c1 | > 100 | > 100 µM |
| C1CCCCC2(CCCCCCCCC3(CCC1)SCCS3)SCCS2 |  | > 100 µM |
| O=C(NN1C(=O)C(Cl)C1c1cccc([N+](=O)[O-])c1)c1ccccc1O (stereo not drawn) |  | > 100 µM |
| O=C(Nc1cccc2[nH]c(C(F)(F)F)nc12)c1cc(Cl)ccc1Cl | 3.59 | > 100 µM |
| COc1ccc(-c2oc3cc(OC)c(OC)c(O)c3c(=O)c2OC)cc1 |  | > 100 µM |
| O=C1/C(=C\c2ccc(Br)cc2)CCCc2ccccc21 |  | 68.2 µM |
| COc1ccc(C2=[S+]C(c3ccccc3)(c3ccccc3)c3ccccc32)cc1 |  | > 100 µM |
| CC12CCCCC1=C(F)C(F)(F)S2 (stereo not drawn) |  | > 100 µM |
